Source: PubChem BioAssay AID686970 (National Center for Advancing Translational Sciences (NCATS), 2013)
Hit rate of the full screen: of about 360,000 compounds, about 6,000 (1.7%) were called active. Inconclusive results, whose numbers are uncertain, are shown with a selection of clear calls. Calls come from the whole dose curve; as a rule, active = well fitted cell-killing curve with a large enough effect; inconclusive = small, poorly fitted or top-dose-only effect, or effect the other way; inactive = flat fitted curve, though single readings scatter. Potencies of inconclusive entries are left out as doubtful fits.

Experiment: qHTS for induction of synthetic lethality in tumor cells producing 2HG: qHTS for the HT-1080-NT fibrosarcoma cell line;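 note: NT is the 2HG producing partner of a matched IDH1 knockdown line; nearly all actives have a fitted effect of over 55% in size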;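 for activity, negative = less viability: 0% = DMSO-treated cells and -100% = media-only wells without cells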
Details: HT-1080-NT fibrosarcoma viability, CellTiter-Glo ATP luminescence, 48 h; activity, negative = less viability: at 46.1 µM (top of the series) unless noted
Procedure, shortened: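 Toxicity toward the 2HG-producing NT line was scored as %Activity, normalised to DMSO and no-cell wells, from CellTiter-Glo luminescence after 48 hours' treatment.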
Potency is the fitted concentration of half-maximal effect; tags give direction and shape of the fitted curve.

SMILES | activity, negative = less viability | Potency
O=C(CC1(O)C(=O)N(Cc2ccccc2Cl)c2ccccc21)c1ccco1 (configuration not stated) | inactive: 1.02% | –
O=C(O)COc1ccc(-c2nc(-c3ccccc3)c(-c3ccccc3)[nH]2)cc1 | – | inconclusive [rising, partial curve]
Cc1cc(Cl)ccc1NC(=O)NC1CCN(S(=O)(=O)c2ccc(F)cc2)CC1 | inactive: -0.695% | –
CCCC(=O)NC(=S)Nc1ccc(N2CCN(C(=O)c3cccs3)CC2)cc1 | – | inconclusive [cytotoxic, partial curve]
CCCc1cc(=O)[nH]c(-n2[nH]c3c(c2=O)CCCC3)n1 | – | inconclusive [cytotoxic, single point]
COC(=O)C1=C(C)NC2=C(C(=O)CC(c3cccs3)C2)C1c1ccsc1 (configuration not stated) | inactive: -6.7% | –
COc1cc(/C=N\NC(=O)c2nonc2N)c(OC)cc1Br | – | inconclusive [cytotoxic, single point]
C#CCn1c(S(=O)(=O)Cc2ccc(OC)cc2)nc(-c2ccccc2)c1-c1ccccc1 | inactive: -26.8% | –
Cc1cc(N2C(=O)C(O)=C(C(=O)c3cc4ccccc4o3)C2c2cccc(Cl)c2)no1 (configuration not stated) | inactive: -15% | –
S=C(c1cn(CCOc2ccccc2)c2ccccc12)N1CCCC1 | inconclusive: -31.9% [cytotoxic] | –
COc1ccc(-c2cc(C(=O)Nc3c(C)n(C)n(-c4ccccc4)c3=O)c3ccccc3n2)cc1OC | – | inconclusive [cytotoxic, single point]
CCCN1C(=O)/C(=N\OCC(=O)Nc2ccc(C(C)C)cc2)c2ccccc21 | inactive: -4.4% | –
COc1ccc(C(NC(=O)c2c(F)c(F)c(F)c(F)c2F)c2ccccc2)cc1 (configuration not stated) | – | inconclusive [cytotoxic, single point]
CCN(C(=S)NC(=O)C1CC1)c1ccccc1 | – | inconclusive [rising, single point]
Cc1cccc(NC(=S)N2CCN(c3ccc(F)cc3)CC2)c1 | – | inconclusive [rising, partial curve]
Cc1ccc2cc(C3CC(c4ccco4)=NN3S(=O)(=O)c3ccccc3)c(Cl)nc2c1 (configuration not stated) | inactive: -14.9% | –
Cc1cc(C(=O)Nc2sc3c(c2C#N)CCC(C)C3)no1 (configuration not stated) | – | inconclusive [cytotoxic, single point]
Cc1ccccc1CNc1ncnc2cc(Cl)ccc12 | – | inconclusive [cytotoxic, partial curve, poor fit]
CCOC(=O)[C@]12Cc3c(cc(OC)c(OC)c3OC)[C@H]1N(Cc1ccccc1)C(=O)c1cc(OC)ccc12 | – | active: 18.4 µM
Cc1nc2c(OCCN3C(=O)c4ccccc4C3=O)cccn2c1N(C)C(=O)CCC1CCCC1 | inactive: 21.2% | –
O=C1CC(=O)OC(c2ccc([N+](=O)[O-])cc2)O1 | – | active: 16.4 µM
Cc1cc(C)cc(N2C(N)=NC(N)=NC2c2cccc(Cl)c2)c1 (configuration not stated) | – | inconclusive [cytotoxic, partial curve]
Cc1ccc(NC(=O)CCC(=O)N/N=C/c2cc([N+](=O)[O-])ccc2O)cc1 | – | inconclusive [cytotoxic, single point]
CCCC(=O)NC(=S)Nc1ccc(S(=O)(=O)Nc2ccc(OCC)cc2)cc1 | – | active: 4.61 µM

SMILES | activity, negative = less viability | Potency
O=C(NCC1CCCO1)c1ccc(COc2ccccc2Br)cc1 (configuration not stated) | – | inconclusive [cytotoxic, single point]
O=C(Cn1c(=O)oc2ccccc21)Nc1nc(-c2ccccc2)cs1 | – | inconclusive [cytotoxic, single point]
C#CCN1C=C(C(=O)OCC)C(C)N(Cc2ccccc2I)S1(=O)=O (configuration not stated) | – | inconclusive [cytotoxic, partial curve]
COc1cc2c(C(=O)N3CCN(C)CC3)c(CSc3ccccc3)n(C)c2cc1Br | – | inconclusive [cytotoxic, partial curve]
CC1=C(C(=O)N(C(C)C)C(C)C)CC(CC(=O)NCCCCc2ccccc2)C(=O)N1Cc1ccc(F)cc1 (configuration not stated) | – | inconclusive [cytotoxic, single point]
CCCCOc1ccc(C(=O)N2CCC(C)CC2)cc1 | inactive: -6.28% | –
CCc1nnc(NC(=O)c2nc(Cl)ccc2Cl)s1 | inactive: 29.2% | –
CC(C)CC(=O)Nc1nc(-c2ccc(S(=O)(=O)N3CCOCC3)cc2)cs1 | – | inconclusive [cytotoxic, single point]
COC(=O)c1sc2nc(C)nc(SCC(=O)C(C)(C)C)c2c1C | inactive: -0.808% | –
CC(C)CN(C(=O)c1cccc(S(=O)(=O)N2CCN(Cc3ccccc3)CC2)c1)C1CCS(=O)(=O)C1 (configuration not stated) | inactive: -1.45% | –
C=CCOc1c(Br)cc(CNc2ccc(NC(=O)C(C)C)c(OC)c2)cc1OC | – | inconclusive [cytotoxic, single point]
COc1ccc(C2CC(c3ccccc3)=NN2C(=O)c2ccc(Cl)c([N+](=O)[O-])c2)cc1 (configuration not stated) | – | inconclusive [cytotoxic, single point]
Cc1ccc(C(CC(=O)NCCCN(C)C)c2ccc(OC(C)C)cc2)cc1 (configuration not stated) | inconclusive: -34.3% [cytotoxic] | –
O=C(OCC(=O)c1ccc[nH]1)c1ccc(C(F)(F)F)cc1 | inactive: 10.3% | –
Cc1cccc(C(=O)N2CCC(=O)N([C@H](COCc3ccc(Cl)cc3)Cc3ccccc3)CC2)c1 | – | inconclusive [cytotoxic, single point]
COc1ccc(CCNc2ncnc3sccc23)cc1OC | – | inconclusive [cytotoxic, single point]
Cc1ccc(C(=O)CSc2nc(C)cc(C)c2C(N)=O)cc1 | – | inconclusive [cytotoxic, partial curve]
CN(C(=S)NC(=O)/C=C/c1ccc(F)cc1)C1CCCCC1 | inconclusive: 6.04% | –
CC(C)C[C@H]1CNC(=S)N1C[C@H]1CCCN1C[C@H](CC(C)C)N1C[C@H](Cc2ccccc2)N(CCc2ccccc2)C1=S | inconclusive: -2.03% [cytotoxic] | –
CCN(CC)c1ccc(/C=N/Nc2ccccc2)c(O)c1 | – | inconclusive [cytotoxic, single point]
N#Cc1nc(COc2ccc(Cl)cc2)oc1NCc1ccc2c(c1)OCO2 | – | inconclusive [cytotoxic, single point]
CCc1cc(-c2[nH]ncc2-c2ccc(OC)cc2)c(O)cc1O | – | inconclusive [cytotoxic, single point]
O=C(Nc1cccc(Cl)c1)N(Cc1nc2ccccc2c(=O)[nH]1)C1CCCC1 | – | inconclusive [cytotoxic, partial curve]
CCN1CCN(S(=O)(=O)c2c(C)[nH]c(C)c2C(=O)N2CCCCC2)CC1 | inactive: -0.881% | –

SMILES | activity, negative = less viability | Potency
COc1ccc(N=N/C(=C\O)C(=O)c2cccs2)cc1 | inactive: -0.352% | –
N=c1c2c(ncn1CCCO)Oc1ccc3ccccc3c1C2c1ccccc1 (configuration not stated) | – | inconclusive [cytotoxic, single point]
Cc1ccc(CCC(=O)Nc2ncc(Cc3cc(Cl)ccc3Cl)s2)o1 | – | active: 1.16 µM
CSC[C@H]1CN(Cc2ccccc2)C(=O)[C@@H]1CC(=O)Nc1ccccc1 | inactive: -0.773% | –
COc1ccc(CNc2ccc(Br)cc2)cc1 | inactive: -2.69% | –
C/C(=N/Nc1nc(-c2ccccc2)cc(-c2ccc(F)cc2)n1)c1cccc(N)c1 | – | inconclusive [cytotoxic, single point]
N#CC1=C(N)NC(SCc2ccc(F)cc2)=C(C#N)C12CCCCC2 | – | active: 20.6 µM
CCCn1c(O)c(N=NC(=O)c2cccnc2)c2cc(Br)ccc21 | – | active: 18.4 µM
FC(F)(F)c1ccc(/C=N/N2CCN(Cc3ccccc3)CC2)cc1 | inactive: -16.4% | –
CCCCOc1ncnc2c1[nH]c1ccc(C)cc12 | – | inconclusive [cytotoxic, full curve]
Cc1ccc(NC(=S)NC(NC(=O)c2ccccc2C)C(Cl)(Cl)Cl)c(C)c1 (configuration not stated) | – | inconclusive [cytotoxic, single point]
Cc1ccc(N(Cc2ccccc2F)S(C)(=O)=O)c(C)c1 | inactive: 17.7% | –
O=C(Nc1ccccc1)Nc1ccc2nnsc2c1 | – | inconclusive [cytotoxic, single point]
C=CCN(c1ccccc1)S(=O)(=O)c1cccc(C(=O)NCC(c2cccs2)N2CCOCC2)c1 (configuration not stated) | inactive: 2.27% | –
CCOC(=O)c1sc2nc(CC(=O)OC)nc(NCCN(CC)CC)c2c1C | inactive: -4.26% | –
CC(C)Cc1cc(C(=O)Nc2ccc3c(c2)OCO3)no1 | – | inconclusive [cytotoxic, full curve]
COc1ccc(C2CC(c3ccccc3)=NN2C(=O)COC(=O)c2cccc(N)c2)cc1 (configuration not stated) | – | inconclusive [cytotoxic, single point]
C[C@@H]1C=C(C(=O)NCc2nc3ccccc3[nH]2)O[C@H](OCCCCO)C1 | inactive: 3.25% | –
Cc1nc(/N=C(\N)NC(=O)NC2CCCCC2)nc2ccccc12 | – | active: 23.1 µM
O=C(NCc1ccncc1)C1Cc2c(-c3ccc4c(c3)OCO4)ccnc2O1 (configuration not stated) | – | inconclusive [cytotoxic, partial curve]
CC1=CC(C)(C)N2C(=O)C3(NCCc4c3[nH]c3ccccc43)c3cc(C)cc1c32 (configuration not stated) | – | inconclusive [cytotoxic, partial curve]
CCCn1c(NCc2cccc(OC)c2OC)nc2ccccc21 | inactive: -24.2% | –
Cc1cccc(-n2nnnc2SCC(=O)Nc2ccc(N3CCN(C)CC3)cc2)c1 | – | inconclusive [cytotoxic, single point]
c1ccc(-c2nc(NCCCn3ccnc3)c3oc4ccccc4c3n2)cc1 | – | inconclusive [cytotoxic, single point]
